In patent US20220056104A1 (Janssen / Centocor, published 2022):

Legend:
[1] = molecular target: T1, Recombinant DR3-Fc (R&D Systems, cat. #943-D3) (UniProt Q93038 25-199, limits assumed); experiment: ELISA, DR3-Fc immobilized
T1 construct: dimeric MW~92 kDa; also called DR3 receptor; Fc-DR3; not shown: Fc part of the bought fusion
T1 sequence (looked up): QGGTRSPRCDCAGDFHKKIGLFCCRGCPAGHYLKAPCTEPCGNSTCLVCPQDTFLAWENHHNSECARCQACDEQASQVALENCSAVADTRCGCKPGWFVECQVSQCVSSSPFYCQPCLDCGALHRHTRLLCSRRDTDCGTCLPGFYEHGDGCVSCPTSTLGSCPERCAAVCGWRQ
Procedure: (§1) All ELISA-based measurements were collected in triplicate, and error values report the standard error between measurements. Recombinant DR3-Fc (R&D Systems, cat. #943-D3), dimeric MW˜92 kDa, was non-specifically immobilized onto plates (Nunc maxisorp, cat. #436110) in 100 μL DR3-Fc, diluted to 10 μg/mL onto a 96-well White Maxisorp plate (Nunc, cat #436110) (O/N, 4° C.). Plates were block for 1 hour at room temperature with 250 μl/well of casein buffer and blocking buffer was removed. 50 μL of TL1A variants were diluted in StartingBlock PBS (Thermo Fisher Scientific), at 25 μg/mL, diluting 3× over each well, according to the plate map description for 20160623) per well on a 96-well White Maxisorp plate (Nunc, cat #: 436110) (overnight at 4° C.).
(§2) Plates were washed three times with TBST. 100 μl/well polyclonal rabbit anti-human TL1A-biotin antibody (diluted 1:1000 in Starting Block PBS) was added and plates were incubated for 1 hour at room temperature with shaking at 150 rpm. TL1A-biotin antibody was removed and 100 μl/well streptavidin-HRP conjugate (diluted 1:10,000 in Starting Block PBS) was added to plates. Plates were incubated for 1 hour at room temperature with shaking at 150 rpm. Plates were washed three times with TBST. 100 μl/well POD Chemiluminescence substrate (Roche, cat #: 11582950001) was added immediately prior to reading plate luminescence using a Molecular Devices M5 plate reader with a delay setting of 100 ms.

[2] = molecular target: T1, Recombinant DR3-Fc (R&D Systems, cat. …); experiment: ELISA, TL1A construct immobilized, DR3 titrated
[3] = molecular target: T2, DcR3 (UniProt O95407 30-300, limits assumed); experiment: ELISA, DcR3
T2 construct: the construct is not described; also called decoy receptor DcR3; TNFRSF6B
T2 sequence (looked up): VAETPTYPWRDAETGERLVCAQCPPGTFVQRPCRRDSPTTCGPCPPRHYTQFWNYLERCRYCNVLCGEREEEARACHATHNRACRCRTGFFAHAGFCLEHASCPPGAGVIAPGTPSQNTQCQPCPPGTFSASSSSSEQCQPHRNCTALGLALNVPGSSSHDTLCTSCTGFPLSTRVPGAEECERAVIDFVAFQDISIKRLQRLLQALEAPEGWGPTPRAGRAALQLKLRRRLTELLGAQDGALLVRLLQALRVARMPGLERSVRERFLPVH

[4] = molecular target: T1, Recombinant DR3-Fc (R&D Systems, cat. …); experiment: ELISA, DR3-Fc immobilized; remark: listed apart in the source
Procedure: as §1, §2
These combination mutants were tested for binding to DR3 and DcR3 (FIGS. 5E and 5F, respectively).

Row | Binder | EC50 [1] [nM] | EC50 [2] [nM] | binding result [3] | EC50 [4] [nM] | Rel EC50 [4] [ratio]
1 | TL1W9 (His-TEV-G-HSA (C34S)-2(G4S)-TL1A) (ligand, HSA fusion, non-covalent trimer; also called HSA-TL1A; HSA-TL1A (TL1W9)) HHHHHHENLYFQG[left out - about 600 residues]GGGGSGGGGSLKGQEFAPSHQQVYAPLRADGDKPRAHLTVVRQTPTQHFKNQFPALHWEHELGLAFTKNRMNYTNKFLLIPESGDYFIYSQVTFRGMTSECSEIRQAGRPNKPDSITVVITKVTDSYPEPTQLLMGTKSVCEVGSNWFQPIYLGAMFSLQEGDKLMVNVSDISLVDYTKEDKTFFGAFLL | 168 |  |  |  | 
2 | TL1W15 (His-TEV-HSA(C34S)-G4S-TL1A-3(G3S)-TL1A-3(G3S)-TL1A) (ligand, HSA fusion of the single-chain TL1A trimer; also called HSA-scTL1A; HSA-scTL1A (TL1W15)) HHHHHHENLYFQG[left out - about 600 residues]GGGGSVYAPLRADGDKPRAHLTVVRQTPTQHFKNQFPALHWEHELGLAFTKNRMNYTNKFLLIPESGDYFIYSQVTFRGMTSECSEIRQAGRPNKPDSITVVITKVTDSYPEPTQLLMGTKSVCEVGSNWFQPIYLGAMFSLQEGDKLMVNVSDISLVDYTKEDKTFFGAFLLGGGSGGGSGGGSVYAPLRADGDKPRAHLTVVRQTPTQHFKNQFPALHWEHELGLAFTKNRMNYTNKFLLIPESGDYFIYSQVTFRGMTSECSEIRQAGRPNKPDSITVVITKVTDSYPEPTQLLMGTKSVCEVGSNWFQPIYLGAMFSLQEGDKLMVNVSDISLVDYTKEDKTFFGAFLLGGGSGGGSGGGSVYAPLRADGDKPRAHLTVVRQTPTQHFKNQFPALHWEHELGLAFTKNRMNYTNKFLLIPESGDYFIYSQVTFRGMTSECSEIRQAGRPNKPDSITVVITKVTDSYPEPTQLLMGTKSVCEVGSNWFQPIYLGAMFSLQEGDKLMVNVSDISLVDYTKEDKTFFGAFLL | 29.2 | 3.8 |  |  | 
3 | TL1W328 (Fc-scTL1A K111A L123K M158Y Q167A S187L N207F) (Fc fusion, Fc-scTL1A format; mutations in all three TL1A copies of the entry; also called TL1W328.001) [left out - human IgG1 Fc and a few adjoining residues]GGGGSVYAPLRADGDKPRAHLTVVRQTPTQHFANQFPALHWEHEKGLAFTKNRMNYTNKFLLIPESGDYFIYSQVTFRGYTSECSEIRAAGRPNKPDSITVVITKVTDLYPEPTQLLMGTKSVCEVGSFWFQPIYLGAMFSLQEGDKLMVNVSDISLVDYTKEDKTFFGAFLLGGGSGGGSGGGSVYAPLRADGDKPRAHLTVVRQTPTQHFANQFPALHWEHEKGLAFTKNRMNYTNKFLLIPESGDYFIYSQVTFRGYTSECSEIRAAGRPNKPDSITVVITKVTDLYPEPTQLLMGTKSVCEVGSFWFQPIYLGAMFSLQEGDKLMVNVSDISLVDYTKEDKTFFGAFLLGGGSGGGSGGGSVYAPLRADGDKPRAHLTVVRQTPTQHFANQFPALHWEHEKGLAFTKNRMNYTNKFLLIPESGDYFIYSQVTFRGYTSECSEIRAAGRPNKPDSITVVITKVTDLYPEPTQLLMGTKSVCEVGSFWFQPIYLGAMFSLQEGDKLMVNVSDISLVDYTKEDKTFFGAFLL |  |  | no binding | 8.8 | 0.8
4 | TL1W327 (Fc-scTL1A K111A L123K M158Y Q167A S187L E190F) (Fc fusion, also called TL1W327.001) [left out - human IgG1 Fc and a few adjoining residues]GGGGSVYAPLRADGDKPRAHLTVVRQTPTQHFANQFPALHWEHEKGLAFTKNRMNYTNKFLLIPESGDYFIYSQVTFRGYTSECSEIRAAGRPNKPDSITVVITKVTDLYPFPTQLLMGTKSVCEVGSNWFQPIYLGAMFSLQEGDKLMVNVSDISLVDYTKEDKTFFGAFLLGGGSGGGSGGGSVYAPLRADGDKPRAHLTVVRQTPTQHFANQFPALHWEHEKGLAFTKNRMNYTNKFLLIPESGDYFIYSQVTFRGYTSECSEIRAAGRPNKPDSITVVITKVTDLYPFPTQLLMGTKSVCEVGSNWFQPIYLGAMFSLQEGDKLMVNVSDISLVDYTKEDKTFFGAFLLGGGSGGGSGGGSVYAPLRADGDKPRAHLTVVRQTPTQHFANQFPALHWEHEKGLAFTKNRMNYTNKFLLIPESGDYFIYSQVTFRGYTSECSEIRAAGRPNKPDSITVVITKVTDLYPFPTQLLMGTKSVCEVGSNWFQPIYLGAMFSLQEGDKLMVNVSDISLVDYTKEDKTFFGAFLL |  |  | no binding | 37.5 | 3.9
5 | TL1W329 (Fc-scTL1A K111A L123K M158Y Q167A E190F N207F) (Fc fusion, Fc-scTL1A format; also called TL1W329.001) [left out - human IgG1 Fc and a few adjoining residues]GGGGSVYAPLRADGDKPRAHLTVVRQTPTQHFANQFPALHWEHEKGLAFTKNRMNYTNKFLLIPESGDYFIYSQVTFRGYTSECSEIRAAGRPNKPDSITVVITKVTDSYPFPTQLLMGTKSVCEVGSFWFQPIYLGAMFSLQEGDKLMVNVSDISLVDYTKEDKTFFGAFLLGGGSGGGSGGGSVYAPLRADGDKPRAHLTVVRQTPTQHFANQFPALHWEHEKGLAFTKNRMNYTNKFLLIPESGDYFIYSQVTFRGYTSECSEIRAAGRPNKPDSITVVITKVTDSYPFPTQLLMGTKSVCEVGSFWFQPIYLGAMFSLQEGDKLMVNVSDISLVDYTKEDKTFFGAFLLGGGSGGGSGGGSVYAPLRADGDKPRAHLTVVRQTPTQHFANQFPALHWEHEKGLAFTKNRMNYTNKFLLIPESGDYFIYSQVTFRGYTSECSEIRAAGRPNKPDSITVVITKVTDSYPFPTQLLMGTKSVCEVGSFWFQPIYLGAMFSLQEGDKLMVNVSDISLVDYTKEDKTFFGAFLL |  |  | no binding | 8.7 | 0.9
6 | TL1W331 (Fc-scTL1A K111A L123K Q167A S187L E190F N207F) (Fc fusion, Fc-scTL1A format; also called TL1W331.001; Fc-scTL1A-AKALFF) [left out - human IgG1 Fc and a few adjoining residues]GGGGSVYAPLRADGDKPRAHLTVVRQTPTQHFANQFPALHWEHEKGLAFTKNRMNYTNKFLLIPESGDYFIYSQVTFRGMTSECSEIRAAGRPNKPDSITVVITKVTDLYPFPTQLLMGTKSVCEVGSFWFQPIYLGAMFSLQEGDKLMVNVSDISLVDYTKEDKTFFGAFLLGGGSGGGSGGGSVYAPLRADGDKPRAHLTVVRQTPTQHFANQFPALHWEHEKGLAFTKNRMNYTNKFLLIPESGDYFIYSQVTFRGMTSECSEIRAAGRPNKPDSITVVITKVTDLYPFPTQLLMGTKSVCEVGSFWFQPIYLGAMFSLQEGDKLMVNVSDISLVDYTKEDKTFFGAFLLGGGSGGGSGGGSVYAPLRADGDKPRAHLTVVRQTPTQHFANQFPALHWEHEKGLAFTKNRMNYTNKFLLIPESGDYFIYSQVTFRGMTSECSEIRAAGRPNKPDSITVVITKVTDLYPFPTQLLMGTKSVCEVGSFWFQPIYLGAMFSLQEGDKLMVNVSDISLVDYTKEDKTFFGAFLL |  |  | no binding | 9 | 0.9
7 | TL1W3 (GS-huIgG1 Fc - 2(G4S)-hTL1A 72-251) (Fc fusion, Target oligomer hexamer: three Fc and two TL1A trimers; also called Fc-TL1A; Fc-TL1A (TL1W3)) [left out - human IgG1 Fc and a few adjoining residues]GGGGSLKGQEFAPSHQQVYAPLRADGDKPRAHLTVVRQTPTQHFKNQFPALHWEHELGLAFTKNRMNYTNKFLLIPESGDYFIYSQVTFRGMTSECSEIRQAGRPNKPDSITVVITKVTDSYPEPTQLLMGTKSVCEVGSNWFQPIYLGAMFSLQEGDKLMVNVSDISLVDYTKEDKTFFGAFLL | 12.4 | 2.6 |  |  | 
8 | TL1W61 (Fc-TL1A + His-TL1A) (Fc fusion, that entry prints the Fc-TL1A chain followed by the His-TL1A chain; target oligomer printed as Dimer; also called Fc-His-TL1A; Fc-His-TL1A (TL1W61)) chain 1: [left out - human IgG1 Fc and a few adjoining residues]GGGGSLKGQEFAPSHQQVYAPLRADGDKPRAHLTVVRQTPTQHFKNQFPALHWEHELGLAFTKNRMNYTNKFLLIPESGDYFIYSQVTFRGMTSECSEIRQAGRPNKPDSITVVITKVTDSYPEPTQLLMGTKSVCEVGSNWFQPIYLGAMFSLQEGDKLMVNVSDISLVDYTKEDKTFFGAFLL chain 2: HHHHHHENLYFQGLKGQEFAPSHQQVYAPLRADGDKPRAHLTVVRQTPTQHFKNQFPALHWEHELGLAFTKNRMNYTNKFLLIPESGDYFIYSQVTFRGMTSECSEIRQAGRPNKPDSITVVITKVTDSYPEPTQLLMGTKSVCEVGSNWFQPIYLGAMFSLQEGDKLMVNVSDISLVDYTKEDKTFFGAFLL | 10.2 | 2.2 |  |  | 
